Paper PMC6919601, “Identification of Plasmodium dipeptidyl aminopeptidase allosteric inhibitors by high throughput screening” (PLoS ONE, 2019)
Hit rate of the full screen: of about 110,000 compounds, about 230 (0.21%) showed an effect of 50% or more. This is one part of the list.

The compounds below were run against DPAP1 (Plasmodium falciparum, UniProt Q8IIJ9) (assay: primary screen, percent inhibition; read by cleavage of a fluorogenic dipeptide substrate; higher = more effect of the substance).
Chain of DPAP1 (Q8IIJ9 whole entry, looked up): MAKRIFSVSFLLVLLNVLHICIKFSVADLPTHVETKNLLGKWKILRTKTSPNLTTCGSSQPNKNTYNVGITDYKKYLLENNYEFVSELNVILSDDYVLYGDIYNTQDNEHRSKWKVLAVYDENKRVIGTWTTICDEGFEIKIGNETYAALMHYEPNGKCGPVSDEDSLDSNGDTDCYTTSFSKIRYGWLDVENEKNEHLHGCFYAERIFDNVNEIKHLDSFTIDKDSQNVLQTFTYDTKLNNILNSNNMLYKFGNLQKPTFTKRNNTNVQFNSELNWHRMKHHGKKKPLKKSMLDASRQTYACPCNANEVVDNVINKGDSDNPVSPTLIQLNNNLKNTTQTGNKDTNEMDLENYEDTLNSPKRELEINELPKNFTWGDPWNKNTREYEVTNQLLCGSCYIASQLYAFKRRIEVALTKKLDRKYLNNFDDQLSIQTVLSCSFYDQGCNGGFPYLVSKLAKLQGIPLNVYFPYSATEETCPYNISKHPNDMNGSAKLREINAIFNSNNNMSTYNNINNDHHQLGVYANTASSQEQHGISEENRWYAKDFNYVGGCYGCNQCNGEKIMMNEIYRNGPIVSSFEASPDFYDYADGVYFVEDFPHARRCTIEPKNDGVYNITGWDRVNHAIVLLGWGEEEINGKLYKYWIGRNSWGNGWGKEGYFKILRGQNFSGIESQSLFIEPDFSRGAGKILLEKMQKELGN
Parameters: species or system P. falciparum D10 trophozoite lysates; single well
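Note: 30 min substrate incubation versus DMSO and 10 µM JCP410 controls.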

SMILES | % Inhibition @ 10 uM
CC1CC(C)CN(CCCNC(=O)c2cn(C3CCCC3)c(=O)c3c2c2ccccc2n3C)C1 (stereo not drawn) | 0.163%
Cc1ccc(S(=O)(=O)N(C)Cc2nc(-c3ccccn3)no2)cc1 | 0.843%
O=C(O)c1cccc(COc2ccc(Br)cc2)c1 | 1.88%
Cc1cc(C)cc(C(=O)N(CCc2ccccc2)C2CC3CCC(C2)N3C)c1 (stereo not drawn) | 6.09%
Cc1ccc(S(=O)(=O)N2CCC(C(=O)NCCC3=CCCCC3)CC2)cc1 | -5.62%
COc1ccc(NC(=O)CNS(=O)(=O)c2cc(Cl)ccc2Cl)cc1 | 10.6%
CC(NS(=O)(=O)c1ccc(OCC(=O)NC2CCCC2)cc1)c1ccccc1 (stereo not drawn) | 1.78%
NC1=NC(=O)/C(=C/c2ccc(Br)s2)S1 | -6.68%
COC(=O)c1sc(NC(=O)CSc2nncn2C)nc1C | 9.03%
COCCNC(=O)c1cc(S(=O)(=O)N2CCOCC2)ccc1C | 0.503%
Cn1c(=O)c2c(nc(NCCN3CCOCC3)n2Cc2cccc(F)c2)n(C)c1=O | -6.98%
C=CCNC(=S)Nc1ccccc1 | 1.49%
Cc1cc2cc(CNC(=O)c3ccccc3C(=O)O)ccc2[nH]1 | 1.55%
CC1=C(C(=O)Nc2ccc(Br)cn2)C(c2ccccc2Cl)C2=C(O)CCCC2=N1 (stereo not drawn) | -1.1%
Cc1cc(N2CCN(S(=O)(=O)c3ccc(Cl)c(Cl)c3)CC2)c2ccccc2n1 | -7.37%
CC(C)c1ccc(CN2CCCC(C(N)=O)C2)cc1 (stereo not drawn) | -1.21%
NS(=O)(=O)c1ccc(-n2ncc3c(O)nc(SCC(=O)NCc4ccco4)nc32)cc1 | 1.26%
CCOC(=O)N1CCC(c2[nH]nc(O)c2C)CC1 | -4.69%
Cc1ccc(OCC(=O)Nc2ncccc2C)cc1 | -0.0217%
Nc1ccc(-c2cc(C(=O)O)c3ccccc3n2)cc1 | 6.96%
C#CCN1C(=O)C(O)(CC(=O)c2ccc(CC)cc2)c2ccccc21 (stereo not drawn) | -0.992%
COc1ccc(S(=O)(=O)Nc2cc(S(N)(=O)=O)ccc2C)cc1 | 2.08%
COC(=O)C1=CN(Cc2ccc(OC)c(OC)c2)C=C(C(=O)OC)C1c1cccc(O)c1 | -5.05%
CCC1C(=O)C(C)(C)C(=O)OC1c1ccc(Cl)cc1Cl (stereo not drawn) | 7.1%
CCOC(=O)c1cnc2ccc(OCC)cc2c1N(C)Cc1ccccc1 | 0.231%

SMILES | % Inhibition @ 10 uM
CC1CCN(S(=O)(=O)c2ccc3nc(-c4cccnc4)cc(C(=O)NC4CC4)c3c2)CC1 | -0.971%
Cn1c(=O)[nH]c(=O)c2c1nc(SCC(=O)Nc1ccccc1)n2CCCc1ccccc1 | -4.76%
O=C(O)C1CC(c2ccccc2)=Nc2ccccc2S1 (stereo not drawn) | -0.0372%
CCCN(CCO)CCCc1ccccc1 | -3.15%
N#Cc1c(NC(=O)c2ccncc2)sc2c1CCCCCC2 | 2.36%
COc1ccc(C2C3=C(O)CCCC3=Nc3ccc4nc(C)ccc4c32)c(OC)c1 (stereo not drawn) | 6.98%
COC(=O)c1[nH]c2c(c1C)C(=O)CC(c1ccccc1Cl)C2 (stereo not drawn) | -0.668%
O=C(Cn1c(=O)[nH]c2ccsc2c1=O)NCc1ccccc1Cl | 0.121%
CCN1C(=O)C(=CNc2ccc3c(c2)-c2ccccc2C3)C(=O)N(CC)C1=O | -0.996%
Cc1cccc(C)c1NC(=O)C1(NC(=O)C(C)NC(=O)c2ccccc2C(=O)O)CCCC1 (stereo not drawn) | 7.66%
Cc1ccc(S(=O)(=O)N(CC(=O)NC2CC3CCC2C3)c2cccc(Cl)c2)cc1 (stereo not drawn) | 8.87%
Cc1ccc(Cl)cc1N1CCN(C(=O)c2ccc(N(C)S(C)(=O)=O)cc2)CC1 | 4.11%
Cc1cccc(C)c1OCc1nc2c3cnn(Cc4ccccc4)c3ncn2n1 | -2.14%
COc1ccc(CCn2c(=O)c3cccnc3n(Cc3cccc(C(F)(F)F)c3)c2=O)cc1OC | -7.18%
O=C(NCCc1ccccc1)c1ccccc1[SH](=O)=O | -10.6%
Cc1cccc(C2CC(=O)NC3=C2C(=O)CC(c2ccccc2Cl)C3)c1 (stereo not drawn) | 1.97%
CCCCNC(=O)CSc1nc2ccsc2c(=O)n1C1CCN(C(=O)OCC)CC1 | -2.92%
CCOc1ccc(CCNC(=O)CCCn2nc(C)n3c(cc4sccc43)c2=O)cc1OCC | -1.58%
COc1ccccc1-n1c(S)nnc1-c1cc(C)nn1C | 5.52%
CC(C)CCN1CC(C(=O)NC(C)C)CC1=O (stereo not drawn) | 0.514%
Cc1ccc(Sc2ccc(C=C3C(=O)NC(=O)NC3=O)o2)cc1 | -4.11%
Cc1nn(CCCC(=O)N2CCC(C(N)=O)CC2)c(=O)c2c1sc1ccccc12 | -4.78%
COc1ccc(C2C(C(=O)c3ccco3)=C(O)C(=O)N2CC2CCCO2)cc1 (stereo not drawn) | 3.66%
COc1cccc(C(=O)Nc2cc(OC)c(Cl)cc2OC)c1 | -3.39%
COC(=O)c1cc(=O)n(Cc2ccc(OC)cc2)/c(=N/Cc2ccc(OC)cc2)s1 | -5.25%

SMILES | % Inhibition @ 10 uM
O=C(Nc1nnc(SCc2ccccc2)s1)c1cc2ccccc2c(=O)o1 | -9.16%
COC(=O)c1cc(-c2c(C)nn(-c3ccccc3)c2C)[nH]n1 | 0.0289%
O=C(CN1CCCC1)Nc1ccc(OC(F)(F)Cl)cc1 | 0.475%
CC(=O)c1cccc(NC(=O)COc2cc(C)ccc2C(C)C)c1 | 0.035%
COC(=O)c1ccccc1NC(=O)c1ccc(F)cc1 | -6.68%
CN(C)c1ccc(C2NC(=O)NC(O)(C(F)(F)F)C2C(=O)c2ccccc2)cc1 (stereo not drawn) | 5.29%
COc1ccc2c(CNCc3ccco3)c(C(=O)O)n(Cc3ccccc3F)c2c1 | -8.18%
CCOc1ccc(-c2cn3c(n2)sc2cc(C(=O)N4CCCCCC4)ccc23)cc1 | 17.2%
CCOC(=O)c1cnn(-c2ccc(C)cc2)c1C1CCN(C(=O)OC(C)(C)C)CC1 | -1.03%
CC(NC(=O)CSc1nc(N)cc(N)n1)c1ccccc1 (stereo not drawn) | -9.93%
CSc1nc(Oc2ccc(Cl)cc2)cc(-n2nc(C)c(C#N)c2N)n1 | -0.725%
COc1ccc(CNC(=O)CN(c2c(C)cccc2C)S(C)(=O)=O)cc1 | -2.83%
COc1ccc(CCC(C)NC2CCCCC2C)cc1 (stereo not drawn) | 3.19%
COc1ccc2occ(C(C)N)c2c1 (stereo not drawn) | 0.847%
O=S(=O)(c1ccc(-c2cc(C(F)(F)F)no2)s1)N1CCc2ccccc2C1 | -0.518%
Cc1ccc(-n2nc3c(c2NC(=O)c2cccc(Cl)c2)CS(=O)(=O)C3)cc1 | 5.9%
COc1ccccc1Cn1c(CO)nc2ccccc21 | -0.425%
COc1ccc(Cl)cc1NC(=O)CC(NCCN)C(=O)O (stereo not drawn) | 5.17%
O=C(COc1ccc(Cl)cc1Cl)Nc1ccc(F)cc1 | -3.82%
COCCCNC(=O)c1csc2c1CCC(C)C2 (stereo not drawn) | 1.93%
CCC(C)n1c(=O)c2sccc2n2c(CCCC(=O)NCc3ccc4c(c3)OCO4)nnc12 (stereo not drawn) | -7.18%
NC(=O)c1ccc(NC(=O)CCc2ccccc2)cc1 | -3.23%
CS(=O)(=O)N(CC(=O)NCCc1ccccc1)c1cccc(F)c1 | -2.21%
CCc1ccc(C2CC(=O)NC3=C2C(=O)CC(c2ccc(F)cc2)C3)cc1 (stereo not drawn) | -5.47%
O=C1OC(c2ccc(Cl)cc2)=N/C1=C\c1cc(Br)ccc1F | 6.4%

SMILES | % Inhibition @ 10 uM
COc1ccc(C2C(C#N)=C(N)Oc3cc(C)n(Cc4cccnc4)c(=O)c32)cc1OC (stereo not drawn) | 2.68%
COC(=O)c1ccc(-c2ccc(CNCCSc3nnnn3C)o2)cc1 | -3.49%
CC(C)OCCCNC(=O)c1cc(-c2ccc(Cl)s2)nc2ccccc12 | -2.49%
c1ccc(CSc2n[nH]c3nc4ccccc4n23)cc1 | 2.9%
CC(=O)N1CCC(=O)N(C(C)C)c2ccccc21 | 6.29%
Cc1n[nH]c(C)c1CCCCCOc1ccccc1Cl | -3.42%
COc1ccc(N2CCN(Cc3cccnc3)CC2)cc1 | 1.48%
CC(C)N(Cc1ccccc1)C(=O)c1ccccc1Cl | 1.38%
COc1cccc2cc(-c3csc(NC(=O)CCC(=O)N4CCc5ccccc5C4)n3)c(=O)oc12 | -1.5%
Cc1ccc2oc(-c3cccc(NC(=O)c4ccccc4F)c3C)nc2c1 | -4.01%
O=C(CS(=O)(=O)c1cn(CC(=O)N2CCCCCC2)c2ccccc12)NCC1CCCO1 (stereo not drawn) | -3.43%
Cc1ccc(C(=O)N2N=C3c4ccccc4S(=O)(=O)N3C2N2CCCCC2)cc1 (stereo not drawn) | -3.21%
O=C(/C=C/c1ccccc1Cl)NCC1CCCO1 (stereo not drawn) | 5%
Nc1cc(=O)nc(SCC(=O)Nc2nncs2)n1CCc1ccccc1 | 6.73%
Cn1c(=O)[nH]c(=O)c2c1nc1n2CC(O)CN1c1cccc2ccccc12 (stereo not drawn) | 1.15%
CC(C)c1ccc(-c2c(NC3CCCCC3)c(=O)c2=O)cc1 | -1.98%
O=C(NCCCN1CCOCC1)c1cc(-c2ccc3c(c2)OCO3)on1 | -5.77%
Cc1ccc(CNCc2c(C(=O)O)n(Cc3ccc(F)cc3)c3ccccc23)cc1 | -6.89%
CCOc1ccc(C2C(C#N)=C(N)Oc3cc(C)oc(=O)c32)cc1 (stereo not drawn) | -1.29%
Cc1nc2nc(C)c(CCC(=O)NCCc3ccc(Cl)cc3)c(C)n2n1 | -2.25%
CC(C)C[C@H](NC(=O)c1ccc(-c2csc(N=C(N)N)n2)cc1)C(=O)N[C@@H](CCCN=C(N)N)C(=O)O | -2.35%
Cc1ccc(-c2n[nH]c3c2C(C)C(C#N)=C(N)O3)cc1 (stereo not drawn) | -6.92%
COc1cc(C2CC(=O)Nc3c2c(C)nn3-c2nc3ccccc3s2)ccc1O (stereo not drawn) | 2.25%
CCOC(=O)C1=C(C)N(Cc2ccccc2)C(=O)C1CC(=O)O (stereo not drawn) | -1.06%
